From patent US20250214977A1, “STAT6 INHIBITORS AND USES THEREOF” (Kymera Therapeutics, Inc., priority 2024, published 2025)

Biological target: T1, biotinylated truncated STAT6 (123-632)-avi (Homo sapiens, UniProt P42226)
T1 sequence (P42226 123-632 limits assumed): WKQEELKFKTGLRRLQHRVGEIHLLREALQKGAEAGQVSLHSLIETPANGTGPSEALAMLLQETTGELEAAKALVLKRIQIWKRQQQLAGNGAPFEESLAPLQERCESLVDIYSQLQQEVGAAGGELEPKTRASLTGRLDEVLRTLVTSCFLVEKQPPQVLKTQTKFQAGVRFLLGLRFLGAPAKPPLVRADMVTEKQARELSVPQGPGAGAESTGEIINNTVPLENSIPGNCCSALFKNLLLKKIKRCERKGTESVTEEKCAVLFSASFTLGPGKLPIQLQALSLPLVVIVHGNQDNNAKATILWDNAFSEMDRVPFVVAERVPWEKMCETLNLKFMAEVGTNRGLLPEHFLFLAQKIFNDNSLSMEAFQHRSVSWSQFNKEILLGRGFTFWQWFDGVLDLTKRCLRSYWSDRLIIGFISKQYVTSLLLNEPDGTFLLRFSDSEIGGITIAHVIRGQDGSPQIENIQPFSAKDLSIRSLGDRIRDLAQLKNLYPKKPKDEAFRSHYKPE
Experiment: Homogenous Time-Resolved Fluorescence (HTRF) binding assay
Settings: 0.15 nM biotinylated truncated STAT6 (123-632)-avi, 20 nM fluorescein-labeled probe

SMILES | IC50 (30 minutes at room temperature) [nM] | IC50 (30 minutes room temperature) [nM]
CN(C)C(=O)c1cc2ccc(C3=CCCN(C(=O)[C@@H]4C[C@H]4c4ccc(Br)cc4)C3)cc2[nH]1 [Example I-56] | 10000 to 100000 | 
CN(C)C(=O)c1cc2cc(C3=CCCN(C(=O)Cn4ccc5ccccc54)C3)ccc2o1 [Example I-274] | 10000 to 100000 | 
COc1ccccc1-c1cc(C2=CCCN(C(=O)CCn3ccnn3)C2)c(F)c2[nH]c(C(=O)N3CC4CC3CN4c3ncccc3OC)cc12 (stereo not drawn) [Example I-1457] |  | 100 to 1000
COc1ccncc1-c1cc(C2=CCCN(C(=O)CCn3ccnn3)C2)c(F)c2[nH]c(C(=O)N3CCN(c4ccccn4)C(C)C3)cc12 (stereo not drawn) [Example I-568] | < 100 | 
COc1ccccc1-c1cc(C2=CCCN(C(=O)CCn3ccnn3)C2)c(F)c2[nH]c(C(=O)N3CCN(c4cncc5nccn45)CC3)cc12 [Example I-1463] |  | < 100
CN(C)C(=O)c1cc2cc(C3=CCCN(C(=O)CCn4ccnn4)C3)cnc2s1 [Example I-244] | 100 to 1000 | 
O=C(NCCCCc1ccc(Cl)cc1)c1cc2ccc(C3=CCCN(C(=O)CCn4ccnn4)C3)c(F)c2[nH]1 [Example I-1662] |  | 1000 to 10000
CCC1CCCCC1c1cc(C2=CCCN(C(=O)CCn3ccnn3)C2)c(F)c2[nH]c(C(=O)N3CCN(c4ncc(F)cc4OC)CC3)cc12 (single isomer, unassigned) [Example I-1174] | 1000 to 10000 | 
COc1cc(F)cnc1N1CCN(C(=O)c2cc3c(-c4cccc(C5CC5)c4)cc(C4=CCCN(C(=O)CCn5ccnn5)C4)c(F)c3[nH]2)CC1 [Example I-674] | 100 to 1000 | 
Cc1cn(CCC(=O)N2CCC=C(c3ccc4cc(C(=O)N(C)C)[nH]c4c3)C2)nn1 [Example I-319] | 1000 to 10000 | 
CN(C)C(=O)c1cc2c(-c3ccccc3S(C)(=O)=O)cc(C3=CCCN(C(=O)CCn4ccnn4)C3)c(F)c2[nH]1 [Example I-1068] | < 100 | 
COc1ccccc1-c1cc(C2=CCCN(C(=O)CCn3ccnn3)C2)c(F)c2[nH]c(C(=O)N3CCc4cccnc43)cc12 [Example I-848] | < 100 | 
CNc1ccc(-c2cc(C3=CCCN(C(=O)C4Cc5c(N)cccc5CN4C=O)C3)cc3cc(C(=O)N(C)C)oc23)c(OC)c1 (stereo not drawn) [Example I-1063] | < 100 | 
COc1ccc(OC)c(-c2cc(C3=CCCN(C(=O)CCn4ccnn4)C3)c(F)c3[nH]c(C(=O)N(C)C)cc23)c1 [Example I-1640] |  | < 100
CC(=O)N1CCC=C(c2cc(-c3ccnc4ccccc34)c3cc(C(=O)N(C)C)[nH]c3c2F)C1 [Example I-1578] |  | < 100
COc1cc(F)cnc1N1CCN(C(=O)c2cc3c(-c4ccc5c(c4)OCCCO5)cc(C4=CCCN(C(=O)CCn5ccnn5)C4)c(F)c3[nH]2)CC1 [Example I-1148] | < 100 | 
COc1cc(F)cnc1N1CCN(C(=O)c2cc3c(-c4ccc(=O)n(Cc5ccccc5)c4)cc(C4=CCCN(C(=O)CCn5ccnn5)C4)c(F)c3[nH]2)CC1 [Example I-1136] | < 100 | 
COc1cc(Cl)cnc1N1CCN(C(=O)c2cc3c(-c4cc(F)cc(F)c4OC)cc(C4=CCCN(C(=O)CCn5ccnn5)C4)c(F)c3[nH]2)CC1 [Example I-462] | 100 to 1000 | 
COc1ccccc1-c1cc(C2=CCCN(C(=O)CCn3ccnn3)C2)c(F)c2[nH]c(C(=O)N3CCN(c4ccn5nc(C)nc5c4)CC3)cc12 [Example I-919] | < 100 | 
COc1cc(F)cnc1N1CCN(C(=O)c2cc3c(-c4ccc(N5C[C@@H](C)O[C@@H](C)C5)nc4)cc(C4=CCCN(C(=O)CCn5ccnn5)C4)c(F)c3[nH]2)CC1 [Example I-1138] | < 100 | 
CCOc1ccncc1-c1cc(C2=CCCN(C(=O)CCn3ccnn3)C2)c(F)c2[nH]c(C(=O)N3CCN(c4nccnc4OC)CC3)cc12 [Example I-478] | < 100 | 
COCc1oncc1C(=O)N1CCC=C(c2ccc3cc(C(=O)N(C)C)[nH]c3c2)C1 [Example I-145] | 1000 to 10000 | 
COc1ccncc1-c1cc(C2=CCCN(C(=O)CCn3ccnn3)C2)c(F)c2[nH]c(C(=O)N3CCN(c4cc5cc[nH]c5nc4C#N)CC3)cc12 [Example I-485] | < 100 | 
CC(C)c1ccccc1Nc1cc(C2=CCCN(C(=O)CCn3ccnn3)C2)cc2cc(C(=O)N(C)C)oc12 [Example I-1515] |  | 100 to 1000
